Measurements as given in PubChem BioAssay AID504845 (National Center for Advancing Translational Sciences (NCATS), 2011).
Where “and” joins values, the source holds several entries; their conditions need not be identical. Equal values may be shown once. Hit rate of the full screen: of about 390,000 compounds, about 150 (0.038%) were called active. Inconclusive means that the source gave no clear call. Such entries were picked first, then a sample of the others. Calls follow the shape of the dose curve; as a rule, active = well fitted inhibition curve with a large enough effect; inconclusive = small, poorly fitted or top-dose-only effect; inactive = no such curve, though single readings can be large or run the other way. Where the call is inconclusive, the potency comes from a doubtful curve fit. The source holds several records for some structures; these can differ, active in one and inactive in another.

molecular target: Regulator of G-protein signaling 4 (Homo sapiens) (UniProt P49798); test: Inhibitors of Regulator of G Protein Signaling (RGS) 4: qHTS; conditions: Transcreener GDP fluorescence polarization, RGS4-accelerated GTP hydrolysis; series mostly up to 114 µM; also: nearly all actives have a fitted effect of over 75% in size
Procedure, shortened: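 MLSMR compounds (23 nl, pin-transferred) preincubated 10 min at room temperature with a 500nM (2x) first reagent, then RGS4 at 900nM (2x) plus Transcreener GDP mix added; fluorescence polarization (620/688 nm) read before and after 90 min at 30 °C.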
Potency is read from the fitted curve at half-maximal effect; tags tell the direction and shape of the fitted curve.

Chain of UniProt P49798 (P49798 whole entry, looked up): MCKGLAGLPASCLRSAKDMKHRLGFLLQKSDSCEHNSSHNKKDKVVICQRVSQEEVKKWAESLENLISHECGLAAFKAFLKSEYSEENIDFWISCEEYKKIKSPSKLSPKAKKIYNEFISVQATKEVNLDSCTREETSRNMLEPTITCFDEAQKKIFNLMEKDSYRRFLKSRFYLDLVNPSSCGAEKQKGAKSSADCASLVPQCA

| SMILES | Potency |
| --- | --- |
| Cc1cc(CCC(=O)O)c(C)cc1CCC(=O)O | inactive |
| CCN1C(=O)[C@H]2[C@@H](c3ccc(-c4ccc(C(C)=O)cc4)c(OC)c3)N[C@@](Cc3ccccc3)(C(=O)OC)[C@H]2C1=O | inactive |
| O=C(Nc1cc(S(=O)(=O)N2CCOCC2)ccc1N1CCCC1)c1ccc(F)cc1 | inconclusive: 100 µM [inhibitor, partial curve, poor fit] |
| O=C(Nc1ccc(S(=O)(=O)N2CCCC2)cc1)C1CC(=O)N(c2ccccc2)C1 (stereo not drawn) | inconclusive: 89.1 µM [inhibitor, single point] |
| NC(=O)CN1C(=O)/C(=c2\sc3nc(=O)c(Cc4ccccc4)nn3c2=O)c2ccccc21 | inconclusive: 44.7 µM [inhibitor, partial curve, poor fit] |
| CN(C)c1nc2c(c(=O)[nH]c(=O)n2C)n1Cc1ccccc1Br | inactive |
| O=[N+]([O-])c1cc(-c2csc(NCCc3nc4cc(Cl)c(Cl)cc4n3CCCO)n2)ccc1Cl | inactive |
| COc1ccc(CC(=O)Nc2nc(C)cs2)cc1S(=O)(=O)N1CCOCC1 | inactive |
| Cc1ccc(C(=O)Nc2nc(-c3ccco3)c(-c3ccco3)s2)o1 | inconclusive: 56.2 µM [inhibitor, partial curve, poor fit] |
| Cc1ccc(CN2CCN(CC(=O)NCCCN3CCN(c4ccc(F)cc4)CC3)C2=O)cc1 | inactive |
| CCCc1cc(=O)n2[nH]c(-c3ccc(Br)cc3)cc2n1 | inconclusive: 89.1 µM [inhibitor, single point] |
| FC(F)(F)c1ccccc1NC1=NCCC1 | inconclusive: 50.1 µM [inhibitor, partial curve, poor fit] |
| COc1ccc(-c2cc(C(F)F)n3ncc(C(=O)N4CCc5ccccc54)c3n2)cc1 | inconclusive: 35.5 µM [inhibitor, full curve, poor fit] |
| C/C=C(\NC(C)=O)c1ccccc1 | inactive |
| N#Cc1ccc(-c2cccnc2)nc1SCC(=O)Nc1sc2c(c1C#N)CCC2 | inconclusive: 20 µM [inhibitor, full curve, poor fit] |
| CCCC(C)NC(=O)CSc1nc(-c2ccccc2)cn1N (stereo not drawn) | inconclusive: 89.1 µM [inhibitor, single point] |
| CCOc1ccc(NC(=O)Cn2c(=O)n(CC(=O)NCCc3ccccc3)c(=O)c3sccc32)cc1 | inactive |
| COc1cccc(CNc2sc3c(c2C(=O)Nc2ccc(OC)cc2OC)CCC3)c1 | inconclusive: 56.2 µM [inhibitor, partial curve, poor fit] |
| Cc1ccc(-c2nnc(-c3cccc(Br)c3)o2)cc1 | inconclusive: 56.2 µM [inhibitor, partial curve, poor fit] |
| COc1ccc2nc(N3CCN(C(=O)CS(=O)(=O)c4ccc(C)cc4)CC3)sc2c1 | inactive |
| O=C(Nc1ccc(-c2ccccc2)cc1)c1ccccc1 | inactive |

| SMILES | Potency |
| --- | --- |
| O=C(Nc1nc(-c2ccc(S(=O)(=O)N3CCCCCC3)cc2)cs1)c1ccccc1 | inconclusive: 100 µM [inhibitor, partial curve, poor fit] |
| Cc1nc2ccccc2n1CCc1nc2c3ccccc3nc(=S)n2[nH]1 | inconclusive: 31.6 µM [inhibitor, partial curve, poor fit] |
| Cc1cc(=O)oc2cc(OCC(=O)NC3CC(C)(C)NC(C)(C)C3)ccc12 | inconclusive: 39.8 µM [inhibitor, partial curve, poor fit] |
| Cc1ccc(-n2c(Cc3ccccc3)n[nH]c2=S)c(C)c1 | inconclusive: 100 µM [inhibitor, partial curve, poor fit] |
| O=C1[C@@H]2Cc3c([nH]c4ccccc34)C(c3cccc([N+](=O)[O-])c3)N2C(=O)CN1CCCO (stereo partly drawn) | inactive |
| CC(C)CNC(=O)C(=O)Nc1c2c(nn1-c1ccc(Cl)cc1)CSC2 | inactive |
| C[C@@H]1[C@H](c2ccccc2)Oc2ccc(Cl)cc2S(=O)(=O)N1CC1CCCN1C(=O)OC(C)(C)C (stereo partly drawn) | inconclusive: 79.4 µM [inhibitor, partial curve, poor fit] |
| O=C(c1cc2cc(Cl)ccc2oc1=O)N1CCCCCCC1 | inactive |
| CC(=O)c1ccc(NC(=O)CSc2nnc3c(n2)[nH]c2ccccc23)cc1 | inconclusive: 39.8 µM [inhibitor, partial curve, poor fit] |
| CC(C)C(=O)Nc1nnc(NC(=S)Nc2ccccc2)s1 | inactive |
| O=C(N/N=C/c1ccc(-c2ccccc2[N+](=O)[O-])o1)[C@H]1C[C@@H]1c1ccccc1 | inconclusive: 89.1 µM [inhibitor, partial curve, poor fit] |
| CCC(Sc1ccc2nnc(-c3ccc(F)cc3)n2n1)C(=O)OC (stereo not drawn) | inactive |
| Nc1nc(CN2CCCCCC2)nc(Nc2ccccc2)n1 | inactive |
| CCOC(=O)C1CCCN(CCC(=O)Nc2ccc(Br)c(C)c2)C1 (stereo not drawn) | inactive |
| Cc1ccc(/C=C2\SC(=S)N(/N=C/c3cc([N+](=O)[O-])ccc3O)C2=O)o1 | inconclusive: 35.5 µM [inhibitor, full curve, poor fit] |
| Cc1ccsc1C=C1C(=O)c2ccccc2C1=O | inactive |
| O=C(O)c1ccccc1Nc1cccc(OCc2ccc3ccccc3n2)c1 | inconclusive: 37.7 µM [inhibitor, single point] |
| COc1ccc(CCNC(=O)CC(NC(=O)c2ccccc2Cl)c2ccccc2)cc1 (stereo not drawn) | inactive |
| Cc1cc(Br)ccc1NC(=O)CN(C)C(=O)c1cc(S(=O)(=O)N(C)C)ccc1N1CCCC1 | inactive |
| CC(=O)NCCc1c(Cc2ccccc2)[nH]c2ccccc12 | inactive and active: 26.7 µM |
| N#Cc1ccc(Oc2ccc(C(N)=O)cc2)cc1C#N | inconclusive: 70.8 µM [inhibitor, single point] |

| SMILES | Potency |
| --- | --- |
| COc1ccc(OC(C)C(=O)N(C)Cc2nc(-c3ccc(OC)cc3)no2)cc1 (stereo not drawn) | inconclusive: 79.4 µM [inhibitor, single point] |
| Cc1cc(C)cc(OCC(=O)Nc2nonc2NC(=O)COc2cc(C)cc(C)c2)c1 | inactive |
| COCCn1c(-c2ccc(-c3ccc([N+](=O)[O-])cc3Br)o2)nc2c1c(=O)[nH]c(=O)n2CC(C)C | inconclusive: 50.1 µM [inhibitor, partial curve, poor fit] |
| O=C(CCCCCn1c(=O)[nH]c2ccsc2c1=O)NCc1ccccc1 | inconclusive: 100 µM [inhibitor, partial curve, poor fit] |
| CC1CN(C(=O)CCC(=O)NCCCN2CCN(Cc3ccccc3)CC2)c2cc(Cl)ccc2O1 (stereo not drawn) | inactive |
| Cc1ccc2cc(/C=C/C(=O)c3ccco3)c(Cl)nc2c1 | inconclusive: 17.8 µM [inhibitor, full curve, poor fit] |
| COc1ccc(S(=O)(=O)N2CCCCC2)cc1NC(=O)c1ccc(Cl)nc1 | inconclusive: 100 µM [inhibitor, single point] |
| N#CC1=C(N)n2c(s/c(=C\c3ccco3)c2=O)=C(C#N)C1c1ccco1 (stereo not drawn) | inconclusive: 79.4 µM [inhibitor, partial curve, poor fit] |
| O=c1[nH]c2ccccc2c2nc(-c3cccc(S(=O)(=O)N4CCCC4)c3)nn12 | inconclusive: 50.1 µM [inhibitor, partial curve, poor fit] |
| CCCOc1ccc(-c2nc(SCc3ccccc3)[nH]c(=O)c2C#N)cc1OC | inconclusive: 50.1 µM [inhibitor, partial curve, poor fit] |
| CCCCC[C@H](O)/C=C/[C@@H]1[C@H]2C/C(=C/CCCC(=O)O)O[C@H]2C[C@H]1O | inconclusive: 0.067 µM [inhibitor, full curve, poor fit] |
| CCOC(=O)c1c(NC(=S)N2CCOCC2)sc2c1CCN(C(=O)OCC)C2 | inconclusive: 17.8 µM [inhibitor, full curve, poor fit] |
| N#C/C(=C\c1ccc(OCc2ccc(C(=O)O)cc2)cc1)C(=O)NCc1ccccc1 | inconclusive: 79.4 µM [inhibitor, single point] |
| Cc1ccc(SCC(=O)NCCSC(C)(C)C)cc1 | inactive |
| CN(C)Cc1nc2ccccc2c(=O)n1Cc1nc(-c2cc3ccccc3o2)cs1 | inconclusive: 79.4 µM [inhibitor, partial curve, poor fit] |
| CCOc1ccc(N(CC(=O)OC)S(=O)(=O)c2c(C)noc2C)cc1 | inconclusive: 28.2 µM [inhibitor, full curve, poor fit] |
| CCOC(=O)c1sc(NC(=O)C(CC)Sc2nnc3c4ccccc4n(C(C)C)c3n2)nc1C (stereo not drawn) | inactive |
| Cc1cc(C)cc(-n2c(C)cc(/C=N/NC(=O)CN(c3c(C)cccc3C)S(C)(=O)=O)c2C)c1 | inactive |
| COc1ccc(C(CNC(=O)c2cccc(S(=O)(=O)Nc3ccccc3OC)c2)N2CCCCC2)cc1 (stereo not drawn) | inactive |
| Brc1ccc(-c2csc(NNC3=NCCCCC3)n2)cc1 | inconclusive: 79.4 µM [inhibitor, partial curve, poor fit] |
| S=c1[nH]nc(-c2ccc3ccccc3n2)n1-c1ccc(Cl)cc1 | inconclusive: 39.8 µM [inhibitor, partial curve, poor fit] |
